# PubChem BioAssay AID463173 (ICCB-Longwood Screening Facility, Harvard Medical School, 2010)
# Screen size: about 52,000 compounds; about 1,700 (3.3%) were called active. Cut-off read from the data, not from the text of the source: active = survival mostly below about 52% (no sharp cut-off); inactive = mostly above about 56%. The list shows a part of the results.
# Test system: Wild type
# Assay: S. aureus survival, RN4220 and DeltatarO strains – OD600, teichoic acid synthesis inhibitors, primary screen (AID 463173)
# Details: S. aureus RN4220 wild type/DeltatarO growth, OD600, 18 h, hits give low values, screened at 18.75 µg/mL (by protocol)
row,SMILES,survival
1,O=S(=O)(/C=C/c1ccccc1)N1CCOCC1,inactive: 110%
2,COc1ccc(C2CC(=O)Nc3c2c(C)nn3-c2nncc(-c3ccc(C)cc3)n2)c(OC)c1OC (stereo unspecified),inactive: 99%
3,CCOc1ccc(-c2nc(SCC(=O)Nc3ccc4c(c3)OCO4)c(-c3ccc(F)cc3)[nH]2)cc1,inactive: 98%
4,Cc1csc2nc(-c3cccc(NC(=O)C(C)C)c3)cn12,inactive: 80%
5,CCc1ccccc1NC(=O)c1ccc2c(c1)N(Cc1cccc(Cl)c1)C(=O)c1ccccc1S2(=O)=O,inactive: 93%
6,CN1C(=O)c2ccccc2Sc2ccc(NC(=O)c3ccccc3F)cc21,inactive: 73%
7,O=C(Cn1c(C(=O)NCc2ccco2)cc2sccc21)c1ccccc1,inactive: 115%
8,CCOC(=O)c1cccc(NC(=O)[C@@H](c2ccccc2)N2Cc3ccccc3C2=O)c1,inactive: 71%
9,Cc1c(-c2nsc(NC(=O)c3ccccc3)n2)nnn1-c1ccc(C(F)(F)F)c(Cl)c1,inactive: 80%
10,CCCNC(=O)N1CCC(C(=O)c2cccc(F)c2)CC1,inactive: 96%
11,Cc1cc(C)c(NC(=O)Cc2csc(C)n2)c(Cl)c1,inactive: 81%
12,COc1cccc2c(=O)c(C(=O)NCc3cccs3)c[nH]c12,inactive: 108%
13,CCN1C(=O)c2ccccc2Sc2ccc(C(=O)NCCCN(CC(C)C)CC(C)C)cc21,inactive: 93%
14,CCCC(=O)Nc1nnc(CCC)s1,inactive: 107%
15,CCOc1ccccc1C1C(C(=O)N2CCCCC2)=C(C)Nc2nc3ccccc3n21 (stereo unspecified),inactive: 73%
16,CCOc1ccccc1NC(=O)c1nn(-c2ccc(C)cc2)c(=O)n(C)c1=O,inactive: 91%
17,Cc1ccc(C(=O)Nc2ccc(-c3cn4cccnc4n3)cc2)cc1C,inactive: 80%
18,COc1ccccc1CNc1ccc(-c2nc(-c3cccnc3)no2)cc1[N+](=O)[O-],inactive: 78%
19,COC(=O)c1c(-c2cccs2)csc1NC(=O)COc1ccc(C(C)(C)C)cc1,inactive: 78%
20,CCc1ccc(NC(=O)c2sc(-n3nc(C)c(Cc4ccc(OC)cc4)c3C)nc2C)cc1,inactive: 121%
21,O=C(CCC1CCCCC1)Nc1c[nH]c(=O)[nH]c1=O,inactive: 104%
22,O=C(NCC1CCN(Cc2cccc(Cl)c2)CC1)Nc1cc(Cl)ccc1Cl,active: -1%
23,COc1cccc(NC(=O)CN2C(=O)c3cccnc3Oc3ccc(Cl)cc32)c1,inactive: 74%

row,SMILES,survival
1,COc1ccc(N(C)C(=O)CCn2cnc3onc(-c4ccc(F)cc4)c3c2=O)c(OC)c1,inactive: 76%
2,Cc1ccccc1NC(=O)NC1(C(=O)N2CCC(C(N)=O)CC2)CCCCC1,inactive: 103%
3,CCCCN(CCCC)C(=O)c1cc2c(=O)n3cccc(C)c3nc2s1,active: -2%
4,COc1ccc(C2CC(=O)N(CC(=O)Nc3cc(C)ccc3C)c3ccccc3S2)cc1 (stereo unspecified),inactive: 86%
5,CC(C)(C)OC(=O)N1CCC(c2c(C(=O)N3CCC(c4ccccc4)C3)cnn2-c2cccc(Cl)c2)CC1 (stereo unspecified),inactive: 135%
6,CCCCCS(=O)(=O)c1oc(-c2cccs2)nc1S(=O)(=O)c1ccc(C)cc1,active: 11%
7,NC(=O)c1ccc(S(N)(=O)=O)o1,inactive: 102%
8,Cc1cccc(OCC(=O)N(Cc2cccs2)c2ccc(Cl)cc2)c1C,inactive: 79%
9,COc1ccc(NC(=O)COc2ccc(-c3nn(C)c(=O)c4ccccc34)cc2)cc1,inactive: 83%
10,COc1ccccc1CNC(=O)C(NS(=O)(=O)c1cccs1)C(C)C (stereo unspecified),inactive: 83%
11,Cc1ccc(-c2nc3sc(CCNC(=O)c4ccc(Br)o4)c(C)n3n2)cc1,inactive: 82%
12,COc1ccc(-c2cc3ccc(O)c(CN4CCOCC4)c3oc2=O)cc1OC,inactive: 136%
13,CCCCOc1ccc(C(=O)Nc2cccc(-c3nc4cccnc4s3)c2)cc1,inactive: 87%
14,Cc1cc2n(n1)C(c1cc(C(C)(C)C)c(O)cc1O)Nc1ccccc1-2 (stereo unspecified),inactive: 115%
15,CSc1cccc(NC(=O)CN2C(=O)COc3ccc(Cl)cc32)c1,inactive: 64%
16,CCOc1ccc(C(=O)N2CCC(c3nc4ccccc4o3)CC2)cc1,inactive: 80%
17,CCOc1ccc(OCC)c(NC(=O)c2nnn(CC(=O)Nc3ccc(C)cc3C)c2N)c1,inactive: 89%
18,CCOC(=O)C1CCN(c2ncnc3c2oc2ccccc23)CC1,inactive: 115%
19,CCOc1ccc(NC(=O)CSc2nc3c(oc4ccccc43)c(=O)n2-c2ccccc2C)cc1,inactive: 99%
20,CC(C)N=C1SC(CC(=O)Nc2ccccc2)C(=O)N1C(C)C (stereo unspecified),inactive: 106%
21,CC(NC(=O)c1ccc2c(c1)CCN2S(=O)(=O)c1ccc(Cl)cc1)c1ccccc1 (stereo unspecified),inactive: 102%
22,COc1ccccc1-c1nnc(SCC(=O)c2ccc(Cl)cc2)n1-c1ccccc1,active: 0%
23,CCCCc1ccc(NC(=O)c2cc3c(=O)n4ccccc4nc3s2)cc1,inactive: 83%

row,SMILES,survival
1,Cc1ccc(NC(=O)NCCc2c(C)nn(C)c2C)cc1Cl,inactive: 129%
2,CCn1ccc2cc(S(=O)(=O)N3CCCN(C(=O)Nc4cccc(Cl)c4)CC3)ccc21,inactive: 84%
3,COc1ccc(N(C)C(=O)c2cn(C3CCCCC3)c(=O)c3c2c2ccccc2n3C)cc1,inactive: 51%
4,COc1ccc(C2=NN(CC(=O)NCCc3ccc(OC)c(OC)c3)C(=O)CC2)cc1,inactive: 143%
5,Cc1cc(NC(=O)c2cccnc2)ccc1NC(=O)c1ccco1,inactive: 92%
6,CCOC(=O)c1c(S(=O)(=O)N2CCCC(C(=O)Nc3cccc(Cl)c3)C2)c(C)n(C)c1C (stereo unspecified),inactive: 90%
7,CC1(C)CC(NS(=O)(=O)c2ccc(S(=O)(=O)N3CCOCC3)cc2)CCO1 (stereo unspecified),inactive: 101%
8,CCCCN(CC)CCCNC(=O)CCN1N=C(c2ccc(OC)cc2)CCC1=O,inactive: 70%
9,COc1ccccc1NC(=O)C(=O)NCCc1csc(-c2cccc(F)c2)n1,inactive: 124%
10,COc1ccc(NC(=O)c2cc(C3CC3)nc3c2c(C)nn3-c2ccccc2)cc1,inactive: 79%
11,COc1cccc(CNC(=O)c2cc3c(s2)-c2ccccc2OC3)c1,inactive: 65%
12,COc1ccc(-n2c(=O)c3c4c(sc3n(Cc3ccc(F)cc3)c2=O)CCCC4)c(OC)c1,inactive: 64%
13,COc1ccccc1NC(=O)C1=C(C)Nc2ncnn2C1c1ccccc1C(=O)O (stereo unspecified),inactive: 77%
14,Cc1cc(N2CCCCC2)nc2ccc(NC(=O)c3cccc(Cl)c3)cc12,active: -2%
15,CCOc1ccc(CNS(=O)(=O)c2cc3c(cc2C)NC(=O)CO3)cc1OC,inactive: 82%
16,COc1ccc(S(=O)(=O)N2CCC(O)(c3cccnc3)CC2)cc1OC,inactive: 114%
17,CCOc1ccccc1C(=O)Nc1ccc2nc(N(CC)CC)cc(C)c2c1,inactive: 63%
18,Cc1ccc(OCC(=O)Nc2nnc(SCc3cc(=O)c4ccccc4[nH]3)s2)cc1,inactive: 78%
19,CC(C)N(C(=O)CN1CCN(Cc2ccccc2)CC1)C(C)C,inactive: 107%
20,CCN(CC)C(=O)Cn1cc(SCC(=O)Nc2ccccc2C)c2ccccc21,inactive: 83%
21,CCOC(=O)N1CCc2c(sc(NCc3cc(OC)c(OC)cc3OC)c2C(=O)Nc2ccc(OCC)cc2)C1,inactive: 68%
22,CCc1ccc(-n2c(=O)c3cccnc3n2CC(=O)Nc2cc(F)ccc2F)cc1,inactive: 73%
23,CCN1CCN(c2ncc3c(n2)CCN(Cc2ccc(OC(C)C)cc2)C3)CC1,inactive: 55%

row,SMILES,survival
1,O=C(NC1CCCCC1)NC1CCN(Cc2nnnn2Cc2ccc3c(c2)OCO3)CC1,inactive: 106%
2,CCOC(=O)c1ccc(-c2ccc(/C=C(\C#N)C(=O)Nc3ccc(OCC)cc3)o2)cc1,inactive: 73%
3,Cc1cccc(-c2nc(SCCCOc3ccc(Cl)c(C)c3)n3[nH]c(=O)cc3n2)c1,inactive: 68%
4,CCOC(=O)c1cccc(NC(=O)NCc2ccc3c(c2)CCN3C(=O)c2ccccc2)c1,inactive: 136%
5,CCc1ccccc1NC(=O)C(=O)NCC(c1cccnc1)N1CCN(c2ccccc2F)CC1 (stereo unspecified),inactive: 92%
6,COc1ccc(Cl)cc1-n1nnc(-c2nsc(NC(=O)c3ccccc3Cl)n2)c1C,inactive: 44%
7,Cc1ccc(NC(=O)C2CCC(CNS(=O)(=O)c3csc(C(N)=O)c3)CC2)cc1Cl (stereo unspecified),inactive: 68%
8,CCCSc1nc2sc3c(c2c(=O)n1Cc1ccccc1)CC(C)(CC)OC3 (stereo unspecified),inactive: 20%
9,COC(=O)c1nnn(-c2cccc(C)c2)c1C(=O)OC,inactive: 77%
10,COc1ccc(C2(CNC(=O)C(=O)Nc3ccc(F)cc3)CCCC2)cc1OC,inactive: 84%
11,O=C(N/N=C1/SCC(=O)N1Cc1ccco1)c1ccccc1F,inactive: 97%
12,Cc1ccc(NS(=O)(=O)c2ccc3c(c2)CCCN3C(=O)C2CCC2)c(C)c1,inactive: 58%
13,N#Cc1cc(O)c(-n2nnc3ccccc32)cc1C#N,inactive: 107%
14,CCOC(=O)c1c(S(=O)(=O)NCC(=O)Nc2cc(C)ccc2C)c(C)n(C)c1C,inactive: 66%
15,CCc1nn(Cc2cc(C)ccc2C)c(=O)c2cc3cc(C)ccc3n12,inactive: 81%
16,CC(C)(C)C(=O)Cn1c(C(=O)O)cc2ccccc21,inactive: 106%
17,CCc1nn2c(=O)cc(COC(=O)c3ccco3)nc2s1,inactive: 124%
18,COc1ccc(N2CC(NC(=O)c3ccc(Br)o3)CC2=O)cc1 (stereo unspecified),inactive: 88%
19,CCCC(=O)Nc1ccc2c(C)cc(C)nc2n1,inactive: 99%
20,Cc1ccc(-c2cn3c(n2)sc2cc(C(=O)NC(C)C45CC6CC(CC(C6)C4)C5)ccc23)cc1 (stereo unspecified),inactive: 86%
21,CCOC(=O)C1CCN(S(=O)(=O)c2csc(C(N)=O)c2)CC1,inactive: 88%
22,COc1ccc(N2CCN(C(=O)c3cc4c(s3)-c3ccccc3OC4)CC2)cc1,inactive: 116%
